Laboratory results taken from patent publication US20060063236A1.

B1: His6TEV-IL-9RA/IL-4RA chimeric polypeptide (SEQ ID NO:4) (ligand)
chain: QGHHHHHHDYDIPTTENLYF[about 120 residues not given here]HKCDITLQEIIKTLNSLTEQKTLCTELTVTDIFAASKNTTEKETFCRAATVLRQFYSHHEKDTRCLGATAQQFHRHKQLIRFLKRLDRNLWGLAGLNSCPVKEANQSTLENFLERLKTIMDEKDSKCSS
B2: His6TEV-IL-4RA/IL-9RA chimeric polypeptide (SEQ ID NO:2) (ligand)
chain: QGHHHHHHDYDIPTTENLYFQGHKCDITLQEIIKTLNSLTEQKTLCTELTVTDIFAASKNTTEKETFCRAATVLRQFYSHHEKDTRCLGATAQQFHRHKQLIRFLKRLDRNLWGLAGLNSCPVKEANQSTLENFLERLKTIMDEKDSKCSS[about 120 residues not given here]

Experiments:
[1] = target: T1, IL-9 receptor alpha chain (IL-9Rα) (human) (UniProt Q01113); experiment: cell-based or functional assay
T1 sequence (looked up): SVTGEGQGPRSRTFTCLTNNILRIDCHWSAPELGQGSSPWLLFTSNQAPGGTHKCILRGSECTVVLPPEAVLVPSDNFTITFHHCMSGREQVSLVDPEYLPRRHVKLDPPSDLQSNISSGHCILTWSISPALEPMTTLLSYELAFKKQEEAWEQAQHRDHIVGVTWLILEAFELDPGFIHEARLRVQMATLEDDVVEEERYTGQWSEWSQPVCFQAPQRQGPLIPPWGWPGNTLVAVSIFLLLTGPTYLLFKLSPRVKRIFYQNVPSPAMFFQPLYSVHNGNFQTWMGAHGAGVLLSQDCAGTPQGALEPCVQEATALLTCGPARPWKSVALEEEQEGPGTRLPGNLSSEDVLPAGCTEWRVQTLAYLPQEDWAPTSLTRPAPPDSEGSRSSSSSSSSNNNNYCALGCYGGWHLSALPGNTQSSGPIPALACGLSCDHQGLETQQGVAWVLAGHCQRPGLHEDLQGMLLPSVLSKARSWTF

[2] = target: IL-4 receptor alpha chain (IL-4Rα) (human) (UniProt P24394); experiment: cell-based or functional assay
Sequence of UniProt P24394 (P24394 26-825): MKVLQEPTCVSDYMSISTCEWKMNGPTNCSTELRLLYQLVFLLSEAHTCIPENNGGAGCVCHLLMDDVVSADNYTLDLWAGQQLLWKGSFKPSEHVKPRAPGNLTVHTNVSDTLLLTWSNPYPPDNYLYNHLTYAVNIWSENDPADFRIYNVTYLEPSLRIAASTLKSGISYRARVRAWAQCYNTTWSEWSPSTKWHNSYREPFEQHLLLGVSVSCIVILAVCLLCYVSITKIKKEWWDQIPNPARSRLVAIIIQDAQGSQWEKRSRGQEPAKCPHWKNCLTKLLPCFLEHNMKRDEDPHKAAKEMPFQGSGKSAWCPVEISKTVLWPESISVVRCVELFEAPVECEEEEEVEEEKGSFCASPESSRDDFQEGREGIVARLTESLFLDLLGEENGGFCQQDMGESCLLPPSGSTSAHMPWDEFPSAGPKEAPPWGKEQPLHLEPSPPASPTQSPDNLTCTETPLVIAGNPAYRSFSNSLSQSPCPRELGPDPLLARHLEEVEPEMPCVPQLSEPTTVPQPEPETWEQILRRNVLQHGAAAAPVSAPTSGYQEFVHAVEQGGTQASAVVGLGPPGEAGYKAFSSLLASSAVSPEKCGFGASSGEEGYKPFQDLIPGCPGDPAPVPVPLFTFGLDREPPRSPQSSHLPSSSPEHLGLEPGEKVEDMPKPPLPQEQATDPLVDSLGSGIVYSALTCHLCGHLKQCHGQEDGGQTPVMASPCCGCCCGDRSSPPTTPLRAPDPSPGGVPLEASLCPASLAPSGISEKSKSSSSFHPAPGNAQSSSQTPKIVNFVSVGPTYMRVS

Binder	IC50, inhibition of IL-9 (0.25 ng/ml) induced Mo7e cell proliferation (AlamarBlue) [1]	IC50, inhibition of IL-4 (0.5 ng/ml) induced Mo7e cell proliferation (AlamarBlue) [2]	IC50, inhibition of IL-4 (10 ng/ml) induced primary B-cell proliferation (tritiated thymidine incorporation) [2]	IC50, inhibition of IL-4 (10 ng/ml) induced primary PHA T-cell blast proliferation (tritiated thymidine incorporation) [2]	IC50, inhibition of IL-13 (5 ng/ml) induced TF-1 cell proliferation (AlamarBlue) [2]	IC50, inhibition of IL-4 (0.5 ng/ml) induced TF-1 cell proliferation (AlamarBlue) [2]
B1	83.6 nM	10.1 nM	10.6 nM	34 nM	20.1 nM	
B2	571 nM	15.2 nM	16.3 nM	104 nM	56.2 nM	20.7 nM
